In the supplement of paper PMC3724861:
The list shows a part of the results.

tested on: T1, Caupolican (Caup) homeodomain DNA-binding domain; assay: PBM E-score (8-mer, recovered from the published 9-mer minima) (E-score (dimensionless, -0.5 to 0.5)); Drosophila protein; higher = stronger relative binding preference, active = 0.31 or more
T1 sequence: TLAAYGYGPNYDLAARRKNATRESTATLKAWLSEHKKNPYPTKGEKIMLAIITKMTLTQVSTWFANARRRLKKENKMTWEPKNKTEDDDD
How it was run: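 Caup's homeodomain DNA-binding domain (residues 214-303) was produced by in vitro transcription and translation and applied at 100 nM to custom-designed protein binding microarrays. Each value is an enrichment score giving relative binding preference for a short DNA word; higher means stronger. Published 9-mer scores were the minimum of their two constituent 8-mer scores, and the 8-mer values were recovered from those minima. A cutoff of 0.31 marks candidate binding sequences.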

| Sequence | PBM E-score |
| --- | --- |
| CTACGACA | inactive: 0.127 |
| CGTTAGGC | inactive: -0.153 |
| CAAAAAGA | inactive: 0.00622 |
| TAGTCTCA | inactive: 0.0309 |
| AAGGGTGC | inactive: -0.0701 |
| ACCCCACA | inactive: -0.106 |
| CATTTCCG | inactive: 0.0434 |
| TCAAGGGA | inactive: 0.0242 |
| AGGCGCGA | inactive: -0.139 |
| ATCAACCC | inactive: 0.0786 |
| GCTTCCCC | inactive: -0.198 |
| GTCACTAA | inactive: 0.0933 |
| ATTACCGC | inactive: 0.0253 |
| GGCCTCGA | inactive: -0.142 |
| CCTGGCAA | inactive: -0.121 |
| AGCTCCAA | ≥ 0.0356 |
| ACTGCGAT | inactive: -0.0547 |
| AGACCGCA | inactive: -0.066 |
| AATGTTAA | inactive: 0.291 |
| CAAGCAAG | inactive: 0.00743 |
| CACCGACC | inactive: -0.0745 |
| TTGCAAAA | inactive: 0.0136 |
| AATGTCTA | inactive: 0.242 |
| GGAGATCC | inactive: -0.103 |

| Sequence | PBM E-score |
| --- | --- |
| GACCCGTC | inactive: -0.251 |
| CGGGGGGA | inactive: -0.365 |
| AGGGCTGG | inactive: -0.137 |
| AACATATA | active: 0.323 |
| CTAAGTTC | inactive: -0.148 |
| AGAGTTCA | inactive: -0.0412 |
| CATTTGGA | inactive: 0.11 |
| ACATGCTG | active: 0.332 |
| ATACTATG | inactive: 0.129 |
| ACCCATTC | inactive: -0.0449 |
| GGGGGCCA | inactive: -0.372 |
| ATTACTAA | inactive: 0.125 |
| CGTGCAGC | inactive: -0.106 |
| CATGATTC | inactive: 0.127 |
| GTCAGAAA | inactive: 0.077 |
| ACACAACC | inactive: 0.228 |
| AATAAAAC | inactive: 0.14 |
| GGCAAGTA | inactive: 0.101 |
| ATAATGGA | inactive: 0.0921 |
| TTACTAAA | inactive: 0.124 |
| CCTAGGCG | inactive: -0.205 |
| CGAAGTGC | inactive: -0.0344 |
| GTATTCCA | inactive: 0.0333 |
| CAACGTTA | inactive: 0.0879 |

| Sequence | PBM E-score |
| --- | --- |
| GACGGGGC | inactive: -0.27 |
| AATTCACA | inactive: 0.162 |
| AATAAGCG | inactive: -0.00945 |
| CCCGTAGC | inactive: -0.284 |
| CTACACAC | inactive: 0.175 |
| AAGCTTCG | inactive: -0.0601 |
| ACCCGGTC | inactive: -0.152 |
| ACTTATTC | inactive: 0.0962 |
| CATAATCA | inactive: 0.18 |
| CCTCTCTC | inactive: -0.164 |
| ACTGATGC | inactive: 0.00816 |
| AGTGTCTG | inactive: 0.0803 |
| CCGGCTTC | inactive: -0.242 |
| AAGTTGAT | inactive: 0.171 |
| GAGGGTGC | inactive: -0.0918 |
| CGCATGAC | inactive: -0.0417 |
| TCGTGCAA | inactive: 0.132 |
| AGCCGCTA | inactive: -0.291 |
| CATCAGGA | inactive: 0.0366 |
| CTGGCCCA | inactive: -0.277 |
| AGGTGTCG | inactive: 0.107 |
| CAACTTAC | inactive: 0.14 |
| AATCAAGC | inactive: 0.051 |
| AGACACCC | inactive: -0.00486 |

| Sequence | PBM E-score |
| --- | --- |
| CGCTCCAG | inactive: -0.139 |
| GAGTGCGC | inactive: -0.162 |
| ATCACGTG | inactive: 0.066 |
| ATAATATA | inactive: 0.265 |
| AATTAATA | ≥ 0.238 |
| ACGCTGTG | inactive: 0.0319 |
| GACTTAAC | inactive: 0.0505 |
| ACAACAAC | active: 0.36 |
| ACTCAAAT | ≥ 0.132 |
| GCACGGCA | inactive: -0.059 |
| AAATTCCA | inactive: 0.132 |
| TCAGAGCA | inactive: -0.0887 |
| GGGAGGTA | inactive: -0.158 |
| ATATGATA | inactive: 0.157 |
| AGACGTTG | inactive: -0.0884 |
| ACCGGAAC | inactive: 0.0421 |
| ACCCGTTG | inactive: 0.0193 |
| CTTTGCAA | inactive: -0.0379 |
| GACTCCGC | inactive: -0.113 |
| CCTCTCAG | inactive: -0.194 |
| GGCGCTAA | inactive: -0.171 |
| GTCGGGCA | inactive: -0.121 |
| ACCTAGAG | inactive: -0.0879 |
| ACTTTAGG | inactive: 0.0104 |

| Sequence | PBM E-score |
| --- | --- |
| AAATCGAT | inactive: 0.137 |
| CACAGGAC | inactive: 0.0267 |
| CAAGCGCC | inactive: -0.176 |
| AGGGTTGC | inactive: -0.0679 |
| AGTAGTTC | inactive: 0.144 |
| ATTATTGA | inactive: 0.124 |
| CCCCGTAA | inactive: -0.0757 |
| ATGAAACG | inactive: -0.0209 |
| GAGCCTAC | inactive: -0.0759 |
| CCAGCCAC | inactive: -0.0929 |
| AGAATGCT | inactive: 0.0061 |
| TACATGGA | active: 0.413 |
| AAATGTTG | inactive: 0.201 |
| AAGAGAGG | inactive: -0.0847 |
| GAAAAGTC | inactive: 0.00369 |
| ATCTCACA | inactive: 0.0963 |
| CCAATATC | inactive: 0.0605 |
| ACCTACCC | inactive: -0.14 |
| ATAATTCC | inactive: 0.119 |
| GTCCGGGA | inactive: -0.0236 |
| TAACATTA | ≥ 0.291 |
| AGCAAAGC | inactive: -0.129 |
| CCTCACGA | inactive: -0.0936 |
| TGCGAAAA | inactive: 0.0415 |

| Sequence | PBM E-score |
| --- | --- |
| CTCAATGA | inactive: 0.0148 |
| CCCCGTAG | inactive: -0.229 |
| AGTGGCAG | inactive: -0.107 |
| ATTATATG | inactive: 0.222 |
| GGTTCTCA | inactive: 0.0149 |
| CACTTCGG | inactive: -0.119 |
| CATCCAAA | inactive: 0.151 |
| TAGGACCA | inactive: -0.0476 |
| CGTGCGAC | inactive: 0.0397 |
| AACCGGTG | inactive: -0.145 |
| ACTGTTCG | inactive: 0.108 |
| ATAACGCC | inactive: -0.0556 |
| TAAACGTA | inactive: 0.168 |
| AACTCTTC | inactive: -0.00813 |
| ATCGCGTA | inactive: 0.0324 |
| ACGTGTGA | inactive: 0.155 |
| AGACGAGG | inactive: -0.108 |
| AGTAATTA | inactive: 0.235 |
| CCTCCTTA | inactive: -0.127 |
| GAGAAACC | inactive: -0.0114 |
| ACCTATGG | inactive: -0.0717 |
| CTATCCCA | inactive: -0.0284 |
| CACTCGCG | inactive: -0.182 |
